Assay results as given in the supplement of paper PMC12217912.
This is one part of the list. Sequences were assembled here from the parent chain. Inactive controls read about 0.05.

B1: TEV protease; numbered along this chain (parent)
chain: MGESLFKGPRDYNPISSSICHLTNESDGHTTSLYGIGFGPFIITNKHLFRRNNGTLVVQSLHGVFKVKDTTTLQQHLVDGRDMIIIRMPKDFPPFPQKLKFREPQREERICLVTTNFQTKSMSSMVSDTSCTFPSGDGIFWKHWIQTKDGQCGSPLVSTRDGFIVGIHSASNFTNTNNYFTSVPKNFMELLTNQEAQQWVSGWRLNADSVLWGGHKVFMVKPEEPFQPVKEATQL

Variants of: B1
Test: raw area under fraction-flipped curve 0-4 h after induction (AUC4h, not background-subtracted), DNA-recorder readout of cleavage of the substrate (dimensionless); higher = more cleavage of the substrate by the protease variant
Conditions: temperature: 34 °C; time window: 0-4 h after rhamnose induction
Description: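 In vivo DNA recorder in E. coli TOP10(DE3) ΔrhaA at 34 °C. Each TEVp single-site mutant (parent TEVp 0) is paired with a single-site variant of the 7-mer TEVs (canonical ENLYFQ|S). The substrate sits between flexible linkers in a Bxb1-sfGFP-TEVs-SsrA fusion, so cleavage stabilises Bxb1 and speeds flipping of a recombination array, read by NGS. The value is the raw area under the fraction-flipped curve over 0-4 h after rhamnose induction (AUC4h), with ≥20 reads per time point. It is not background-subtracted; inactive controls average about 0.047.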
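Note: Bxb1 expression induced with 0.2% (w/v) L-rhamnose at OD600 near 0.5, cultures sampled hourly, flipped fraction per protease–substrate barcode pair counted by paired-end Illumina sequencing.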

Variant	area with substrate ENLAFQS	area with substrate ENLCFQS	area with substrate ENLDFQS	area with substrate ENLEFQS	area with substrate ENLGFQS	area with substrate ENLHFQS	area with substrate ENLKFQS	area with substrate ENLNFQS	area with substrate ENLPFQS	area with substrate ENLQFQS	area with substrate ENLRFQS	area with substrate ENLSFQS	area with substrate ENLFFQS	area with substrate ENLIFQS	area with substrate ENLLFQS	area with substrate ENLMFQS	area with substrate ENLWFQS	area with substrate ENLTFQS	area with substrate ENLVFQS
P155T	0.0401	0.0486	0.0554	0.0667	0.0128	0.0601	0.0525	0.0637	0.0592	0.0406	0.0532	0.049							
I139K	0.0343		0.0601	0.0485	0.0759	0.0789	0.0657	0.0599	0.087			0.0644	0.066	0.0802	0.0532	0.0844			
S169V	0.0491		0.0566	0.0484	0.0511	0.0587	0.0812		0.0561	0.0546			0.0786	0.0866					
S169L	0.0644			0.0566	0.0613														
W144E	0.0646	0.0672			0.0633	0.0601	0.0696		0.0512	0.0643		0.0878	0.0756				0.0591		
N177F	0.0846	0.0577	0.056		0.0703	0.0546	0.0626	0.0634		0.0484	0.066	0.0572	0.0656	0.0635		0.0568	0.065	0.0551	0.0494
H143E	0.0651	0.0434	0.0414			0.0508	0.0648	0.0585	0.0708	0.0669	0.0675	0.0576	0.0702	0.0391	0.0514				0.0608
F163C	0.0568	0.0727	0.0899	0.083		0.0748			0.0614	0.0536	0.0557	0.0729					0.0543	0.0649	
G153H	0.0513	0.0448	0.0475		0.0436		0.0595	0.0385	0.0429	0.041		0.0477	0.0378	0.045		0.0045			
G153A	0.0512	0.0639	0.112	0.0551		0.0539	0.0639	0.0834				0.0456	0.0704						
Q151K	0.0659	0.0617	0.071	0.068	0.0536			0.0563	0.0546		0.0637	0.0558	0.0477		0.0517		0.0275	0.064	0.0729
S130F	0.0495			0.0691		0.0594						0.0524	0.073	0.065				0.0547	
P134F	0.0651				0.0824	0.0558	0.0603	0.0603	0.0739	0.053	0.0603	0.0669	0.0779		0.0549		0.0495		0.0677
G166H	0.053	0.0543	0.0458	0.0531	0.0323	0.0413	0.0493	0.0635	0.0468	0.0389	0.0648		0.07	0.0587	0.0568				0.0862
K185Y	0.0501	0.0759	0.0502	0.0585		0.0795	0.069	0.0818	0.0562	0.0783	0.075	0.0586	0.0779		0.0686		0.0687		0.17
K185R	0.101		0.0697	0.0488		0.0819	0.107	0.0647	0.0634			0.0722	0.0905	0.0843					
S171N	0.0669	0.0597	0.055	0.064		0.0629	0.0748	0.0692		0.0559		0.0694	0.0576	0.0592					0.0646
V165Q	0.0548		0.0515	0.0425		0.0663	0.0621	0.0504	0.0585			0.0443	0.093		0.0578		0.0562		0.0462
V165H	0.0586					0.0458		0.0476	0.041		0.0264	0.0409	0.0374	0.0492	0.04				
L190V	0.0678		0.0632	0.0745	0.0598		0.0755	0.0642	0.0595	0.0455		0.0425	0.0954	0.0638			0.0642		
G162T	0.0551		0.0619	0.0432		0.0576	0.0731	0.0726	0.081		0.0678			0.08	0.0808		0.069		
G162Q	0.0602	0.0701	0.0621	0.0574		0.0624	0.0608	0.0616				0.0549	0.0775			0.0654			
Q146Y	0.0613		0.0512			0.0671	0.0921	0.065	0.0715	0.0599	0.0622	0.0588	0.0749	0.0782	0.0755		0.0614	0.0636	
Q146E	0.0788	0.0644		0.0707		0.0893	0.0744	0.0678	0.0539	0.0731		0.0575	0.0822	0.0761	0.0561		0.0474	0.0633	0.0662
N193F	0.0783		0.0676		0.0691		0.0635	0.0536	0.054			0.0538		0.103					0.0551
S127N	0.0637	0.0845	0.0594	0.0599		0.0873	0.0686	0.0765				0.0619	0.0951	0.0754			0.0848		
M188F	0.0583		0.0647				0.0826	0.063	0.0743	0.0545		0.0589	0.123						
M188Q	0.0445	0.0629	0.0743			0.0627			0.0645			0.0561	0.0784	0.105	0.0595		0.0787		
M188G	0.0667	0.0768	0.0549			0.0837	0.0714	0.0595					0.107	0.077		0.0767		0.0644	
G136I	0.0598	0.103	0.053				0.081	0.0519		0.0819	0.0692	0.0728	0.0806	0.0848	0.069				
